# According to the supplement of paper PMC8728848:
# The other results are listed elsewhere or left out.
# B1: Pwp4 (Candida glabrata) (protein)
# chain: MGSSHHHHHHSSGLVPRGSHMASVGNPITVSNVCSFPKNWHRTAGFRALTARLGIGIQSDSYKELLNYPGTFQLTTQQSSTTKPNFQISGLVGNIYGLTIVPSYLLVELTGYFVPPVSGEYTFSLEGSDDAAIIFIANPSTFKCGHVEDWPTAYDNDVTVTESIHATRTIYMIEGVAYPIRIAYYNGLSLGKLQASFTDPEGVKRVDWNGYIWRYDSCDTCSYV
# Assays:
# Test in all cases: glycan array binding signal (z-score within array); higher = stronger binding
# Settings in all cases: glycan notation: IUPAC condensed, linker removed
# [1] = target: GlcNAc(b1-3)Gal(b1-4)GlcNAc(b1-3)Gal(b1-4)GlcNAc(b1-3)GalNAc
# In short: (§1)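 Arrays were curated from the Consortium for Functional Glycomics database, 3228 in total, and kept only where the protein sequence was available. Binding is expressed as a within-array Z-score. This score was averaged across arrays of the same protein sequence at different concentrations or buffers and across linkers, and negative values can be read as non-binding.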
# [2] = target: GlcNAc(b1-3)Gal(b1-4)GlcNAc(b1-3)GalNAc
# In short: as §1
# [3] = target: GlcNAc(b1-3)Gal(b1-4)GlcNAc(b1-3)[GlcNAc(b1-3)Gal(b1-4)GlcNAc(b1-3)]GalNAc
# In short: as §1
# [4] = target: GlcNAc(b1-3)Gal(b1-4)GlcNAc(b1-6)[Gal(b1-3)]GalNAc
# In short: as §1
# [5] = target: GlcNAc(b1-3)Gal(b1-4)GlcNAc(b1-6)[GlcNAc(b1-3)Gal(b1-3)]GalNAc
# In short: as §1
# [6] = target: GlcNAc(b1-3)Gal(b1-4)GlcNAc(b1-6)[GlcNAc(b1-3)]Gal(b1-4)GlcNAc
# In short: as §1
# GlcNAc(b1-3)GalNAc = target: GlcNAc(b1-3)GalNAc
# In short: as §1
# GlcNAc(b1-3)Man = target: GlcNAc(b1-3)Man
# In short: as §1
# [7] = target: GlcNAc(b1-3)[GlcNAc(b1-4)][GlcNAc(b1-6)]GlcNAc
# In short: as §1
# [8] = target: GlcNAc(b1-3)[GlcNAc(b1-6)]Gal(b1-4)GlcNAc
# In short: as §1
# [9] = target: GlcNAc(b1-3)[GlcNAc(b1-6)]GalNAc
# In short: as §1
# [10] = target: GlcNAc(b1-4)Gal(b1-4)GlcNAc
# In short: as §1
# GlcNAc(b1-4)GlcNAc = target: GlcNAc(b1-4)GlcNAc
# In short: as §1
# [11] = target: GlcNAc(b1-4)GlcNAc(b1-4)GlcNAc
# In short: as §1
# [12] = target: GlcNAc(b1-4)GlcNAc(b1-4)GlcNAc(b1-4)GlcNAc(b1-4)GlcNAc
# In short: as §1
# [13] = target: GlcNAc(b1-4)GlcNAc(b1-4)GlcNAc(b1-4)GlcNAc(b1-4)GlcNAc(b1-4)GlcNAc
# In short: as §1
# [14] = target: GlcNAc(b1-4)[GlcNAc(b1-6)]GalNAc
# In short: as §1
# [15] = target: GlcNAc(b1-6)Gal(b1-4)GlcNAc
# In short: as §1
# GlcNAc(b1-6)GalNAc = target: GlcNAc(b1-6)GalNAc
# In short: as §1
# [16] = target: GlcNAc6S(b1-3)Gal(b1-4)GlcNAc
# In short: as §1
# Kdn(a2-3)Gal(b1-3)GalNAc = target: Kdn(a2-3)Gal(b1-3)GalNAc
# In short: as §1
# Kdn(a2-3)Gal(b1-3)GlcNAc = target: Kdn(a2-3)Gal(b1-3)GlcNAc
# In short: as §1
# Kdn(a2-3)Gal(b1-4)Glc = target: Kdn(a2-3)Gal(b1-4)Glc
# In short: as §1
# Kdn(a2-3)Gal(b1-4)GlcNAc = target: Kdn(a2-3)Gal(b1-4)GlcNAc
# In short: as §1
# [17] = target: Kdn(a2-3)Gal(b1-4)[Fuc(a1-3)]GlcNAc
# In short: as §1
# Kdn(a2-6)Gal(b1-4)GlcNAc = target: Kdn(a2-6)Gal(b1-4)GlcNAc
# In short: as §1
# [18] = target: Man(a1-2)Man(a1-2)Man(a1-3)Man
# In short: as §1
# [19] = target: Man(a1-2)Man(a1-2)Man(a1-6)[Man(a1-3)]Man
# In short: as §1
# Man(a1-2)Man(a1-3)Man = target: Man(a1-2)Man(a1-3)Man
# In short: as §1
# [20] = target: Man(a1-2)Man(a1-3)[Man(a1-2)Man(a1-6)]Man
# In short: as §1
# [21] = target: Man(a1-2)Man(a1-3)[Man(a1-2)Man(a1-6)]Man(a1-6)[Man(a1-2)Man(a1-2)Man(a1-3)]Man
# In short: as §1
# [22] = target: Man(a1-2)Man(a1-3)[Man(a1-2)Man(a1-6)]Man(a1-6)[Man(a1-2)Man(a1-2)Man(a1-3)]Man(b1-4)GlcNAc(b1-4)GlcNAc
# In short: as §1
# [23] = target: Man(a1-2)Man(a1-3)[Man(a1-6)]Man(a1-6)[Man(a1-2)Man(a1-3)]Man(b1-4)GlcNAc(b1-4)GlcNAc
# In short: as §1
# [24] = target: Man(a1-2)Man(a1-6)[Man(a1-3)]Man(a1-6)[Man(a1-2)Man(a1-2)Man(a1-3)]Man
# In short: as §1
# [25] = target: Man(a1-2)Man(a1-6)[Man(a1-3)]Man(a1-6)[Man(a1-2)Man(a1-2)Man(a1-3)]Man(b1-4)GlcNAc(b1-4)GlcNAc
# In short: as §1
# Man(a1-3)[Man(a1-6)]Man = target: Man(a1-3)[Man(a1-6)]Man
# In short: as §1
# [26] = target: Man(a1-3)[Man(a1-6)]Man(a1-6)[Man(a1-2)Man(a1-3)]Man(b1-4)GlcNAc(b1-4)GlcNAc
# In short: as §1
# [27] = target: Man(a1-3)[Man(a1-6)]Man(a1-6)[Man(a1-3)]Man
# In short: as §1
# [28] = target: Man(a1-3)[Man(a1-6)]Man(a1-6)[Man(a1-3)]Man(b1-4)GlcNAc(b1-4)GlcNAc
# In short: as §1
# [29] = target: Man(a1-3)[Man(a1-6)]Man(b1-4)GlcNAc(b1-4)GlcNAc
# In short: as §1
# [30] = target: Man(a1-3)[Man(a1-6)]Man(b1-4)GlcNAc(b1-4)[Fuc(a1-6)]GlcNAc
# In short: as §1
# Man(a1-6)Man = target: Man(a1-6)Man
# In short: as §1
# Man(b1-4)GlcNAc = target: Man(b1-4)GlcNAc
# In short: as §1
# MurNAc(b1-4)GlcNAc = target: MurNAc(b1-4)GlcNAc
# In short: as §1
# Neu5Ac(a2-3)Gal = target: Neu5Ac(a2-3)Gal
# In short: as §1
binder,measurement,setting,value
B1,glycan array binding signal (z-score),[1],-0.617
same,glycan array binding signal (z-score),[2],0.261
same,glycan array binding signal (z-score),[3],0.069
same,glycan array binding signal (z-score),[4],-0.456
same,glycan array binding signal (z-score),[5],-0.359
same,glycan array binding signal (z-score),[6],-0.353
same,glycan array binding signal (z-score),GlcNAc(b1-3)GalNAc,-0.484
same,glycan array binding signal (z-score),GlcNAc(b1-3)Man,-0.401
same,glycan array binding signal (z-score),[7],-0.323
same,glycan array binding signal (z-score),[8],0.059
same,glycan array binding signal (z-score),[9],-0.726
same,glycan array binding signal (z-score),[10],-0.455
same,glycan array binding signal (z-score),GlcNAc(b1-4)GlcNAc,-0.258
same,glycan array binding signal (z-score),[11],-0.431
same,glycan array binding signal (z-score),[12],-0.442
same,glycan array binding signal (z-score),[13],-0.361
same,glycan array binding signal (z-score),[14],-0.596
same,glycan array binding signal (z-score),[15],-0.407
same,glycan array binding signal (z-score),GlcNAc(b1-6)GalNAc,-0.456
same,glycan array binding signal (z-score),[16],-0.195
same,glycan array binding signal (z-score),Kdn(a2-3)Gal(b1-3)GalNAc,-0.337
same,glycan array binding signal (z-score),Kdn(a2-3)Gal(b1-3)GlcNAc,1.6
same,glycan array binding signal (z-score),Kdn(a2-3)Gal(b1-4)Glc,-0.259
same,glycan array binding signal (z-score),Kdn(a2-3)Gal(b1-4)GlcNAc,-0.444
same,glycan array binding signal (z-score),[17],-0.531
same,glycan array binding signal (z-score),Kdn(a2-6)Gal(b1-4)GlcNAc,0.025
same,glycan array binding signal (z-score),[18],0.3
same,glycan array binding signal (z-score),[19],-0.597
same,glycan array binding signal (z-score),Man(a1-2)Man(a1-3)Man,-0.626
same,glycan array binding signal (z-score),[20],-0.658
same,glycan array binding signal (z-score),[21],-0.159
same,glycan array binding signal (z-score),[22],-0.193
same,glycan array binding signal (z-score),[23],-0.58
same,glycan array binding signal (z-score),[24],-0.523
same,glycan array binding signal (z-score),[25],-0.373
same,glycan array binding signal (z-score),Man(a1-3)[Man(a1-6)]Man,-0.546
same,glycan array binding signal (z-score),[26],-0.235
same,glycan array binding signal (z-score),[27],0.799
same,glycan array binding signal (z-score),[28],-0.094
same,glycan array binding signal (z-score),[29],0.474
same,glycan array binding signal (z-score),[30],0.529
same,glycan array binding signal (z-score),Man(a1-6)Man,-0.868
same,glycan array binding signal (z-score),Man(b1-4)GlcNAc,-0.403
same,glycan array binding signal (z-score),MurNAc(b1-4)GlcNAc,-0.449
same,glycan array binding signal (z-score),Neu5Ac(a2-3)Gal,0.361
